Test results reported in the supplement of paper PMC8728848.
The list shows a part of the results.

Legend:
Experiment in all cases: glycan array binding signal (z-score within array); higher = stronger binding
Details in all cases: glycan notation: IUPAC condensed, linker removed
[1] = biological target: GlcNAc(b1-3)Gal(b1-4)GlcNAc(b1-2)Man(a1-3)[GlcNAc(b1-3)Gal(b1-4)GlcNAc(b1-2)Man(a1-6)]Man(b1-4)GlcNAc(b1-4)[Fuc(a1-6)]GlcNAc
Method in brief: (§1)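 Columns mapping to the same glycan were averaged after glycan names were converted to IUPAC-condensed notation. The data come from 3228 arrays in the Consortium for Functional Glycomics database, limited to those with an available protein sequence. Binding is reported as a within-array Z-score averaged across arrays of one protein sequence and across linkers.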

[2] = biological target: GlcNAc(b1-3)Gal(b1-4)GlcNAc(b1-2)[GlcNAc(b1-3)Gal(b1-4)GlcNAc(b1-6)]Man(a1-6)[GlcNAc(b1-3)Gal(b1-4)GlcNAc(b1-2)Man(a1-3)]Man(b1-4)GlcNAc(b1-4)GlcNAc
Method in brief: as §1

[3] = biological target: GlcNAc(b1-3)Gal(b1-4)GlcNAc(b1-3)Gal(b1-4)GlcNAc
Method in brief: as §1

[4] = biological target: GlcNAc(b1-3)Gal(b1-4)GlcNAc(b1-3)Gal(b1-4)GlcNAc(b1-2)Man(a1-3)[GlcNAc(b1-3)Gal(b1-4)GlcNAc(b1-3)Gal(b1-4)GlcNAc(b1-2)Man(a1-6)]Man(b1-4)GlcNAc(b1-4)GlcNAc
Method in brief: as §1

[5] = biological target: GlcNAc(b1-3)Gal(b1-4)GlcNAc(b1-3)Gal(b1-4)GlcNAc(b1-2)Man(a1-3)[GlcNAc(b1-3)Gal(b1-4)GlcNAc(b1-3)Gal(b1-4)GlcNAc(b1-2)Man(a1-6)]Man(b1-4)GlcNAc(b1-4)[Fuc(a1-6)]GlcNAc
Method in brief: as §1

[6] = biological target: GlcNAc(b1-3)Gal(b1-4)GlcNAc(b1-3)Gal(b1-4)GlcNAc(b1-2)[GlcNAc(b1-3)Gal(b1-4)GlcNAc(b1-3)Gal(b1-4)GlcNAc(b1-6)]Man(a1-6)[GlcNAc(b1-3)Gal(b1-4)GlcNAc(b1-3)Gal(b1-4)GlcNAc(b1-2)Man(a1-3)]Man(b1-4)GlcNAc(b1-4)[Fuc(a1-6)]GlcNAc
Method in brief: as §1

[7] = biological target: GlcNAc(b1-3)Gal(b1-4)GlcNAc(b1-3)Gal(b1-4)GlcNAc(b1-3)Gal(b1-4)GlcNAc(b1-2)Man(a1-3)[GlcNAc(b1-3)Gal(b1-4)GlcNAc(b1-3)Gal(b1-4)GlcNAc(b1-3)Gal(b1-4)GlcNAc(b1-2)Man(a1-6)]Man(b1-4)GlcNAc(b1-4)GlcNAc
Method in brief: as §1

[8] = biological target: GlcNAc(b1-3)Gal(b1-4)GlcNAc(b1-3)Gal(b1-4)GlcNAc(b1-3)Gal(b1-4)GlcNAc(b1-2)Man(a1-3)[GlcNAc(b1-3)Gal(b1-4)GlcNAc(b1-3)Gal(b1-4)GlcNAc(b1-3)Gal(b1-4)GlcNAc(b1-2)Man(a1-6)]Man(b1-4)GlcNAc(b1-4)[Fuc(a1-6)]GlcNAc
Method in brief: as §1

[9] = biological target: GlcNAc(b1-3)Gal(b1-4)GlcNAc(b1-3)Gal(b1-4)GlcNAc(b1-3)Gal(b1-4)GlcNAc(b1-2)[GlcNAc(b1-3)Gal(b1-4)GlcNAc(b1-3)Gal(b1-4)GlcNAc(b1-3)Gal(b1-4)GlcNAc(b1-6)]Man(a1-6)[GlcNAc(b1-3)Gal(b1-4)GlcNAc(b1-3)Gal(b1-4)GlcNAc(b1-3)Gal(b1-4)GlcNAc(b1-2)Man(a1-3)]Man(b1-4)GlcNAc(b1-4)[Fuc(a1-6)]GlcNAc
Method in brief: as §1

[10] = biological target: GlcNAc(b1-3)Gal(b1-4)GlcNAc(b1-3)Gal(b1-4)GlcNAc(b1-3)Gal(b1-4)GlcNAc(b1-3)Gal(b1-4)GlcNAc(b1-2)Man(a1-3)[GlcNAc(b1-3)Gal(b1-4)GlcNAc(b1-3)Gal(b1-4)GlcNAc(b1-3)Gal(b1-4)GlcNAc(b1-3)Gal(b1-4)GlcNAc(b1-2)Man(a1-6)]Man(b1-4)GlcNAc(b1-4)GlcNAc
Method in brief: as §1

[11] = biological target: GlcNAc(b1-3)Gal(b1-4)GlcNAc(b1-3)Gal(b1-4)GlcNAc(b1-3)Gal(b1-4)GlcNAc(b1-3)Gal(b1-4)GlcNAc(b1-2)Man(a1-3)[GlcNAc(b1-3)Gal(b1-4)GlcNAc(b1-3)Gal(b1-4)GlcNAc(b1-3)Gal(b1-4)GlcNAc(b1-3)Gal(b1-4)GlcNAc(b1-2)Man(a1-6)]Man(b1-4)GlcNAc(b1-4)[Fuc(a1-6)]GlcNAc
Method in brief: as §1

[12] = biological target: GlcNAc(b1-3)Gal(b1-4)GlcNAc(b1-3)Gal(b1-4)GlcNAc(b1-3)Gal(b1-4)GlcNAc(b1-3)Gal(b1-4)GlcNAc(b1-2)[GlcNAc(b1-3)Gal(b1-4)GlcNAc(b1-3)Gal(b1-4)GlcNAc(b1-3)Gal(b1-4)GlcNAc(b1-3)Gal(b1-4)GlcNAc(b1-6)]Man(a1-6)[GlcNAc(b1-3)Gal(b1-4)GlcNAc(b1-3)Gal(b1-4)GlcNAc(b1-3)Gal(b1-4)GlcNAc(b1-3)Gal(b1-4)GlcNAc(b1-2)Man(a1-3)]Man(b1-4)GlcNAc(b1-4)[Fuc(a1-6)]GlcNAc
Method in brief: as §1

[13] = biological target: GlcNAc(b1-3)Gal(b1-4)GlcNAc(b1-3)Gal(b1-4)GlcNAc(b1-3)GalNAc
Method in brief: as §1

[14] = biological target: GlcNAc(b1-3)Gal(b1-4)GlcNAc(b1-3)GalNAc
Method in brief: as §1

[15] = biological target: GlcNAc(b1-3)Gal(b1-4)GlcNAc(b1-3)[GlcNAc(b1-3)Gal(b1-4)GlcNAc(b1-3)]GalNAc
Method in brief: as §1

[16] = biological target: GlcNAc(b1-3)Gal(b1-4)GlcNAc(b1-6)[Gal(b1-3)]GalNAc
Method in brief: as §1

[17] = biological target: GlcNAc(b1-3)Gal(b1-4)GlcNAc(b1-6)[GlcNAc(b1-3)Gal(b1-3)]GalNAc
Method in brief: as §1

[18] = biological target: GlcNAc(b1-3)Gal(b1-4)GlcNAc(b1-6)[GlcNAc(b1-3)]Gal(b1-4)GlcNAc
Method in brief: as §1

GlcNAc(b1-3)GalNAc = biological target: GlcNAc(b1-3)GalNAc
Method in brief: as §1

B1: OGAN (protein)
chain: MVQKESQATLEERESELSSNPAASAGASLEPPAAPAPGEDNPAGAGGAAVAGAAGGARRFLCGVVEGFYGRPWVMEQRKELFRRLQKWELNTYLYAPKDDYKHRMFWREMYSVEEAEQLMTLISAAREYEIEFIYAISPGLDITFSNPKEVSTLKRKLDQVSQFGCRSFALLFNDIDHNMCAADKEVFSSFAHAQVSITNEIYQYLGEPETFLFCPTEYCGTFCYPNVSQSPYLRTVGEKLLPGIEVLWTGPKVVSKEIPVESIEEVSKIIKRAPVIWDNIHANDYDQKRLFLGPYKGRSTELIPRLKGVLTNPNCEFEANYVAIHTLATWYKSNMNGVRKDVVMTDSEDSTVSIQIKLENEGSDEDIETDVLYSPQMALKLALTEWLQEFGVPHQY
- glycan array binding signal (z-score) [1]: -0.025
- glycan array binding signal (z-score) [2]: -0.038
- glycan array binding signal (z-score) [3]: -0.055
- glycan array binding signal (z-score) [4]: -0.043
- glycan array binding signal (z-score) [5]: -0.018
- glycan array binding signal (z-score) [6]: -0.073
- glycan array binding signal (z-score) [7]: 0.013
- glycan array binding signal (z-score) [8]: -0.016
- glycan array binding signal (z-score) [9]: -0.012
- glycan array binding signal (z-score) [10]: -0.074
- glycan array binding signal (z-score) [11]: -0.071
- glycan array binding signal (z-score) [12]: 0.044
- glycan array binding signal (z-score) [13]: -0.017
- glycan array binding signal (z-score) [14]: -0.061
- glycan array binding signal (z-score) [15]: -0.067
- glycan array binding signal (z-score) [16]: -0.055
- glycan array binding signal (z-score) [17]: -0.052
- glycan array binding signal (z-score) [18]: -0.063
- glycan array binding signal (z-score) (GlcNAc(b1-3)GalNAc): -0.082
